The campaign covered roughly 310,000 compounds. About 2,200 (0.71%) showed an effect of 50% or more. Effects have a minus sign here. The list shows a part of the results.
target: human ether-à-go-go-related gene (hERG) potassium channel (human, UniProt Q12809); assay: primary screen, population patch clamp on CHO cells stably expressing hERG
Sequence (Q12809 whole entry, looked up): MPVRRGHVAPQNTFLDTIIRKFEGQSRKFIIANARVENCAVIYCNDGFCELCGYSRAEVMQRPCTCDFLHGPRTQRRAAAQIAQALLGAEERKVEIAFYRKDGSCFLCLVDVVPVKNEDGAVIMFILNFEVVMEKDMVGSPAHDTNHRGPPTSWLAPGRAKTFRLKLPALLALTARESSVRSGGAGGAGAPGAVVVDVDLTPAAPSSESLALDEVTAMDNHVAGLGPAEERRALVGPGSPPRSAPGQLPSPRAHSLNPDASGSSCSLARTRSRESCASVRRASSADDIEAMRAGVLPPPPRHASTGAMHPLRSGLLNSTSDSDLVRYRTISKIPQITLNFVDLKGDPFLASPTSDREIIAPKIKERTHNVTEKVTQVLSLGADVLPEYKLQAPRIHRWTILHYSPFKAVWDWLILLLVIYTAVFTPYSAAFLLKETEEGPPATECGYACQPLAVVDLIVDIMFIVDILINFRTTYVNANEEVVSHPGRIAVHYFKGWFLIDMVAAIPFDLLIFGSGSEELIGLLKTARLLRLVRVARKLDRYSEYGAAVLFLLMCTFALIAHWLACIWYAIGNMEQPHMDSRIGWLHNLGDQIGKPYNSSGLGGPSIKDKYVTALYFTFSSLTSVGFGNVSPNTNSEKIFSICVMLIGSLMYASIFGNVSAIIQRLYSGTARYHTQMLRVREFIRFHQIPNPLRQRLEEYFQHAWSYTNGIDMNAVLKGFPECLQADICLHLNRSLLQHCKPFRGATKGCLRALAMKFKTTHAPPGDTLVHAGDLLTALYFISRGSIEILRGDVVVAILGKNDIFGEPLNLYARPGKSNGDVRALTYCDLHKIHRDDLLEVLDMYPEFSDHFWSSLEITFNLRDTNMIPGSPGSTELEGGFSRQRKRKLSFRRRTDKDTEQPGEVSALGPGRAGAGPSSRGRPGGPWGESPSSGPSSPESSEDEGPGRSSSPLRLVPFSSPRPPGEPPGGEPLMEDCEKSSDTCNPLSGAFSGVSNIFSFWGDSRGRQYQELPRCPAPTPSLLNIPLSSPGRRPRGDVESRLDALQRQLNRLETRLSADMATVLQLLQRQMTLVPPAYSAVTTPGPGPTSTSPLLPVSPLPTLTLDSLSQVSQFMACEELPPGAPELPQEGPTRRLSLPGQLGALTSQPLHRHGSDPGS

Row | SMILES | hERG current change (%, negative = inhibition) at 1uM [%]
1 | CCC(=NCc1ccco1)c1c(C(F)(F)F)[nH]n(-c2nc3ccccc3s2)c1=O | 7.52
2 | Cc1cc(C(=O)OCC(=O)Nc2ccc(F)cc2)c(C)o1 | 2.11
3 | CCNC(=S)N(C)CCc1cc2c(c(OC)c1C=C1C(=O)N(C)C(=O)N(C)C1=O)OCO2 | 12.5
4 | Nc1ccnc(=O)[nH]1 | 13.8
5 | CC1CC(=O)C2=C(C1)Nc1ccccc1N=C2 (stereo not shown) | 10.6
6 | Cc1cc(/C=N/n2cnnc2)c(C)n1-c1ccc(OCc2ccc(Cl)cc2Cl)cc1 | 10.2
7 | CCOCCn1c(=NC(=O)c2cc3ccccc3oc2=O)sc2cc(S(N)(=O)=O)ccc21 | -30.2
8 | O=C1NCCCCC1NS(=O)(=O)c1ccccc1 (stereo not shown) | 13.5
9 | CCn1c(COc2ccccc2C(N)=O)nc2ccccc21 | 9.95
10 | O=C(Cc1ccc(Cl)cc1)Nc1ccccc1C(=O)N1CCCCC1 | -6.78
11 | Cc1ccccc1Cn1nc(C)c(NC(=O)c2nc3n(n2)C(C(F)F)CC(C)N3)c1C (stereo not shown) | 11
12 | Cc1ccccc1-n1ncc2c1CC(C)(C)CC2NC(=O)CCN1CCCCC1=O (stereo not shown) | 14.2
13 | CCOc1ccc(/C=N/Nc2cc(C)nc(N3CCOCC3)n2)cc1 | 10.7
14 | CCOP(=O)(OCC)C(Nc1cccc([N+](=O)[O-])c1)c1ccc(OC)cc1 (stereo not shown) | 8.66
15 | CCN1CCN(S(=O)(=O)c2ccc(Cl)c(C(=O)Nc3ccc(OC(F)F)cc3)c2)CC1 | -10.5
16 | O=C(O)c1ccc(S(=O)(=O)c2ccc(Sc3ccc(C(=O)O)c(C(=O)O)c3)cc2)cc1 | 21.8
17 | Cn1c(CCNC(=O)c2ccco2)nc2cc([N+](=O)[O-])ccc21 | -7.75
18 | COc1cc(S(=O)(=O)N2CCN(c3ccccc3F)CC2)c(OC)cc1Cl | 3.35
19 | CN(C)c1ccc(C2Nc3ccccc3C(=O)N2NS(C)(=O)=O)cc1 (stereo not shown) | 15.5
20 | O=C(c1ccc(S(=O)(=O)NCc2ccco2)cc1)N1CCN(c2ccc(F)cc2)CC1 | -21.5
21 | Cc1cc(CSCc2ccc(Cl)cc2)no1 | 19
22 | Cc1nn(CC(=O)N2CCC(C)CC2)c(=O)c2cccn12 | 18.5

Row | SMILES | hERG current change (%, negative = inhibition) at 1uM [%]
23 | CCOC(=O)[C@H]1[C@H]2COc3ccccc3[C@@H]2N2C(=O)c3ccccc3NC(=O)[C@@]12C | 11.7
24 | CCC(C)c1ccccc1NC(=O)CN(C)CC(=O)Nc1ccccc1SC (stereo not shown) | 10.2
25 | O=C(COC(=O)c1cncc(Br)c1)NCc1ccc(Cl)cc1 | 17.7
26 | CCOc1ccccc1-n1c(O)c(C=Nc2ccc(N(CC)CC)cc2)c(=O)[nH]c1=O | 6.76
27 | CCOc1ccc(CC2CC(=O)NC2=O)cc1 (stereo not shown) | 10.1
28 | COC(=O)C1C2c3ccccc3C(c3ccccc32)C1C(=O)OC (stereo not shown) | 7.4
29 | COCCNC(=O)CN(C(=O)CCC(=O)Nc1nccs1)c1ccc2c(c1)OCO2 | 12.7
30 | O=C(COC(=O)C1CCN(S(=O)(=O)c2ccccc2)CC1)NCCc1ccccc1 | 7.83
31 | Cc1ccc2[nH]c(=O)c(CN(C)C(=O)c3ccccn3)cc2c1 | 13
32 | O=C(NN1CCOCC1)c1cc(Cl)ccc1Cl | 12.9
33 | Nc1nonc1C(=O)NCCNC(=O)c1cccs1 | -4.76
34 | COc1ccc(CCNC(=O)C2CCC(C(C)(C)C)CC2)cc1OC (stereo not shown) | 13
35 | CN1C(=O)C(O)(CC(=O)c2ccncc2)c2ccccc21 (stereo not shown) | 7.69
36 | C/C(=N/NC(=O)c1ccccc1)C1=C(O)CC(C)(C)CC1=O | 14.4
37 | N#CCCn1cc(C=C(C#N)C#N)c(-c2ccc(-c3ccccc3)cc2)n1 | 12
38 | CCCN(CCC)CCCNC(=O)c1cn(CC)c2ccc(S(=O)(=O)N3CCOCC3)cc2c1=O | 14.1
39 | CCOc1ccccc1NC(=O)C1CCN(S(=O)(=O)c2c(C)nn(C)c2C)CC1 | 0.895
40 | Cc1ccc(C(=O)NN2CC(O)=C(c3nc(-c4cccc([N+](=O)[O-])c4)cs3)C2=N)cc1 | 5.9
41 | CC(Sc1nc(-c2ccc(F)cc2)cs1)C(=O)N1c2ccccc2CC1C (stereo not shown) | 10.6
42 | C=CCNC(=O)CN1CCC(n2nnc3cc(C(F)(F)F)ccc32)CC1 | -0.772
43 | O=C(CCc1ccccc1)Nc1ccc(F)cc1F | -15.5
